# Results taken from PubChem BioAssay AID588855 (National Center for Advancing Translational Sciences (NCATS), 2011).
# About 5,000 (1.2%) of roughly 410,000 compounds were called active. Inconclusive means that the source gave no clear call. Such entries were picked first, then a sample of the others. Calls come from the whole dose curve; as a rule, active = well fitted inhibition curve with a large enough effect; inconclusive = small, poorly fitted or top-dose-only effect; inactive = no such curve, though single readings can be large or run the other way. A potency beside an inconclusive call is a rough fit, not a confirmed value.
# Experiment: qHTS for Inhibitors of TGF-b; note: nearly all actives have a fitted effect of over 65% in size
# Conditions: HepG2 CAGA-GFP TGF-b/SMAD3 reporter, GFP fluorescence, 18 h, TGF-beta stimulated, 500 pg/mL final; series mostly up to 46.1 µM
# Outline: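 Using HEPG2 CAGA-GFP reporter cells at 1000 cells/well, we pinned test compounds, stimulated with recombinant TGF-beta (500 pg/mL final) and measured total well GFP after 18 h.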
# Potency is the fitted concentration of half-maximal effect; tags give direction and shape of the fitted curve.
row,SMILES,Potency
1,COC(=O)Cc1c(C)nc2nc(NCc3ccc(Cl)cc3)[nH]n2c1=O,"inconclusive: 35.5 µM [inhibitor, single point]"
2,CC(=O)N1N=C(N)SC1c1ccc(Cl)c(Cl)c1 (stereo unspecified),inactive
3,CCOC(=O)C1=C(CS(=O)(=O)c2ccc(C(C)(C)C)cc2)NC(=O)NC1c1cccc(OC)c1 (stereo unspecified),"inconclusive: 35.5 µM [inhibitor, single point]"
4,COc1ccccc1NC(=S)N(CCN1CCOCC1)Cc1ccccc1F,inactive
5,COc1ccccc1/C=C\C=N\NC(=O)c1ccco1,"inconclusive: 0.794 µM [inhibitor, partial curve, poor fit]"
6,C[C@@H]1CN([C@@H](C)CO)C(=O)CCCn2nncc2CO[C@H]1CN(C)S(=O)(=O)c1ccc(-c2ccccc2)cc1,inactive
7,COc1cc2c(cc1NC(=O)C(C)Sc1cccc[n+]1[O-])oc1ccccc12 (stereo unspecified),"inconclusive: 7.08 µM [inhibitor, full curve, poor fit]"
8,COC(=O)CN1C(c2cccc(Cl)c2)=Nc2ccc(Cl)cc2C1c1ccccc1 (stereo unspecified),"inconclusive: 35.5 µM [inhibitor, single point]"
9,CC(=O)c1ccc(S(=O)(=O)N2CCN(C(=O)c3ccc(COc4ccccc4)o3)CC2)cc1,"inconclusive: 6.31 µM [inhibitor, full curve, poor fit]"
10,CCOc1cnc(-c2c(-c3ccccc3Cl)noc2C)o1,"inconclusive: 5.62 µM [inhibitor, full curve, poor fit]"
11,O=C(CSc1nc2ccccc2c(=O)n1CCCN1CCOCC1)Nc1ccc(F)c(Cl)c1,inactive
12,C[C@H]1CN([C@@H](C)CO)C(=O)Cc2cc(NC(=O)CCC(F)(F)F)ccc2O[C@H]1CN(C)Cc1ccc(C(F)(F)F)cc1,"inconclusive: 15.8 µM [inhibitor, partial curve, poor fit]"
13,Cc1ccc(C)c2[nH]c(=O)c(CN(Cc3ccco3)C(=O)Nc3ccccc3)cc12,"inconclusive: 20 µM [inhibitor, partial curve, poor fit]"
14,COc1ccc(C=CC(=O)c2c(OC)cc(OC)c(OC)c2O)cc1,"inconclusive: 35.5 µM [inhibitor, partial curve, poor fit]"
15,Cc1ccc(S(=O)(=O)N2CCOC23CCN(C(=O)c2ccc(Cl)cc2Cl)CC3)cc1,"inconclusive: 20 µM [inhibitor, single point]"
16,CCOc1ccccc1C(=O)Nc1cc(OC)ccc1OC,inactive
17,COc1ccc(NC(=O)C2CCCCN2S(=O)(=O)c2ccc(F)cc2)c(OC)c1 (stereo unspecified),inactive
18,CCCCSc1nc(C)cc(C)c1S(=O)(=O)c1ccccc1C,"inconclusive: 8.91 µM [inhibitor, partial curve]"
19,CCOc1ccccc1N(C)C(=O)c1cc(S(=O)(=O)NCCc2ccc(Cl)cc2)ccc1F,"inconclusive: 35.5 µM [inhibitor, single point]"
20,COc1cccc(/C=C/c2onc(C)c2S(=O)(=O)N2CCC(C(=O)NC3CCCCCC3)CC2)c1,inactive
21,COc1cc(C(=O)c2cocc2C(=O)c2ccc3c(c2)OCO3)cc(OC)c1OC,"inconclusive: 3.16 µM [inhibitor, full curve]"

row,SMILES,Potency
1,O=C(CN(Cc1cccs1)S(=O)(=O)c1ccc(S(=O)(=O)NC2CCCCC2)cc1)Nc1ccccc1,"inconclusive: 15.8 µM [inhibitor, partial curve, poor fit]"
2,COc1cccc(CC(=O)Nc2nc3ccccc3[nH]2)c1,inactive
3,CCOC(=O)N1CCN(S(=O)(=O)c2ccc(C(=O)NNc3nc4c(C)cccc4s3)cc2)CC1,"inconclusive: 35.5 µM [inhibitor, single point]"
4,CCN(CC)S(=O)(=O)c1ccc(NC(=O)c2ccc3c(=O)n4c(nc3c2)CCCCC4)cc1,"inconclusive: 10 µM [inhibitor, partial curve, poor fit]"
5,CCOc1ccc(NC(=O)c2ccc3c(c2)nnn3C2CCCC2)cc1,"inconclusive: 0.562 µM [inhibitor, full curve]"
6,CCC(C)NS(=O)(=O)c1ccc(NC(=O)C2CCN(C(=O)c3ccco3)CC2)cc1 (stereo unspecified),"inconclusive: 5.62 µM [inhibitor, single point]"
7,Oc1cccc(NC(=S)Nc2ccc(SC(F)F)cc2)c1,"inconclusive: 17.8 µM [inhibitor, partial curve, poor fit]"
8,O=c1ccc(-c2ccccc2)n[nH]1,"inconclusive: 6.31 µM [inhibitor, single point]"
9,O=C(Nc1c(Cl)cc([N+](=O)[O-])cc1Cl)c1cc(Cl)cc(Cl)c1O,active: 3.16 µM
10,CCOc1cc(/C=N/NC(=O)CSc2nncn2C)ccc1OC(=O)c1ccc(Cl)cc1,"inconclusive: 25.1 µM [inhibitor, single point]"
11,Cc1cc(C)nc(Nc2cccc(C(F)(F)F)c2)n1,"inconclusive: 35.5 µM [inhibitor, single point]"
12,O=C(CC1C(=O)NCCN1C(=O)Nc1ccc(C(F)(F)F)cc1)Nc1ccc(F)cc1 (stereo unspecified),"inconclusive: 35.5 µM [inhibitor, single point]"
13,O=C1Cc2cccc3cccc1c23,"inconclusive: 5.62 µM [inhibitor, single point]"
14,CC(=O)N1CCN(Cc2cc(=O)n3cc(Cl)c(C)c(Cl)c3n2)CC1,inactive
15,COc1ccc2c(c1OC)C(=O)OC2Nc1nc(-c2cc3cc(Br)ccc3oc2=O)cs1 (stereo unspecified),inactive
16,CC1CCN(Cc2c(C(=O)N/N=C/c3cccc(Cl)c3)nnn2-c2nonc2N)CC1,"inconclusive: 20 µM [inhibitor, single point]"
17,COc1ccc(C2=NCC(CSc3nnc(-c4ccc5c(c4)OCO5)o3)S2)cc1 (stereo unspecified),"inconclusive: 8.91 µM [inhibitor, single point]"
18,O=C(C1COc2ccccc2O1)N1CCN(c2nc3c(F)cccc3s2)CC1 (stereo unspecified),"inconclusive: 25.1 µM [inhibitor, single point]"
19,O=C(O)c1ccccc1-n1c(-c2ccccc2)cc2c1CCCC2=O,inactive
20,Cc1ccccc1OCCOC(=O)c1cc(S(=O)(=O)N2CCCCC2)ccc1N1CCOCC1,"inconclusive: 5.62 µM [inhibitor, single point]"
